Positions of bridges follow the written chain, without caps; N, C: chain ends. Residues, ends and D or L forms follow the SMILES beside them.
These compounds were tested against LBD of the human nAChR α9 subunit (Homo sapiens, UniProt Q9UGM1) (assay: biochemical). Conditions: not given.

SMILES | IC50 [µM]
CSCC[C@@H]1NC(=O)[C@H](CCCNC(=N)N)NC(=O)[C@H]([C@@H](C)O)NC(=O)[C@@H]2CCCN2C(=O)[C@H]([C@@H](C)O)NC(=O)[C@H](Cc2ccc(O)cc2)NC(=O)[C@H](Cc2ccc(O)cc2)NC(=O)[C@H]([C@@H](C)O)NC(=O)[C@H](CCCNC(=N)N)NC(=O)[C@H]([C@@H](C)O)NC(=O)[C@H]([C@@H](C)O)NC(=O)[C@@H](N)CSSC[C@@H](C(=O)O)NC(=O)[C@H](CCCCN)NC(=O)[C@H](CO)NC(=O)[C@H](C(C)C)NC(=O)[C@H](CCCCN)NC1=O [Lynx1 (1)] (H-CTTRTYYTPTRMKVSKC-OH; disulfide 1-17) | 41.7
CC(C)C[C@@H]1NC(=O)[C@H]([C@@H](C)O)NC(=O)[C@@H](N)CSSC[C@@H](C(=O)O)NC(=O)[C@H]([C@@H](C)O)NC(=O)[C@H](C(C)C)NC(=O)[C@H](C(C)C)NC(=O)[C@@H]2CCCN2C(=O)[C@H](CO)NC(=O)[C@H](CCC(N)=O)NC(=O)[C@H](CC(N)=O)NC(=O)[C@H](Cc2ccccc2)NC(=O)[C@@H]2CCCN2C(=O)[C@H](Cc2ccc(O)cc2)NC(=O)[C@H](CCC(=O)O)NC(=O)[C@H](C)NC(=O)[C@H](CCC(=O)O)NC(=O)[C@H](C(C)C)NC(=O)[C@H]([C@@H](C)O)NC(=O)[C@H](C(C)C)NC1=O [SLURP1 (6)] (H-CTLVTVEAEYPFNQSPVVTC-OH; disulfide 1-20; N-terminus assumed) | > 300
CC(C)C[C@@H]1NC(=O)[C@H](C(C)C)NC(=O)[C@H](CCCNC(=N)N)NC(=O)[C@H]([C@@H](C)O)NC(=O)[C@H](C)NC(=O)[C@H]([C@@H](C)O)NC(=O)[C@@H](N)CSSC[C@@H](C(=O)O)NC(=O)[C@H]([C@@H](C)O)NC(=O)[C@H](C(C)C)NC(=O)[C@H](CC(C)C)NC(=O)[C@@H]2CCCN2C(=O)[C@H](CC(C)C)NC(=O)[C@H](CC(=O)O)NC(=O)[C@H](CCC(=O)O)NC(=O)[C@H]([C@@H](C)O)NC(=O)[C@H](CC(N)=O)NC(=O)[C@H](CO)NC1=O [SLURP2 (7)] (H-CTATRVLSNTEDLPLVTC-OH; disulfide 1-18; N-terminus assumed) | ~400
CSCC[C@@H]1NC(=O)[C@H](CCCNC(=N)N)NC(=O)[C@H](CCCNC(=N)N)NC(=O)[C@H](C(C)C)NC(=O)[C@H](C(C)C)NC(=O)[C@H](CCC(=O)O)NC(=O)[C@H](Cc2ccc(O)cc2)NC(=O)[C@@H]2CCCN2C(=O)[C@H](CO)NC(=O)[C@H](CCCNC(=N)N)NC(=O)[C@H](CCC(N)=O)NC(=O)[C@H](Cc2c[nH]cn2)NC(=O)[C@H](CCCNC(=N)N)NC(=O)[C@H](C(C)C)NC(=O)[C@H](CCSC)NC(=O)[C@H](CCCCN)NC(=O)[C@@H](N)CSSC[C@@H](C(=O)O)NC1=O [SSS (5)] (H-CKMVRHQRSPYEVVRRMC-OH; disulfide 1-18; N-terminus assumed) | 41.7

Same assay, conditions: […]; 100 nM human α9 LBD, Ni2+-NTA agarose beads; mean (95% CI), three to four independent experiments; read-out: IC50, μM (95%CI) α9 LBD

SMILES | IC50 [µM]
CSCC[C@@H]1NC(=O)[C@H](CCCNC(=N)N)NC(=O)[C@H]([C@@H](C)O)NC(=O)[C@@H]2CCCN2C(=O)[C@H]([C@@H](C)O)NC(=O)[C@H](Cc2ccc(O)cc2)NC(=O)[C@H](Cc2ccc(O)cc2)NC(=O)[C@H]([C@@H](C)O)NC(=O)[C@H](CCCNC(=N)N)NC(=O)[C@H]([C@@H](C)O)NC(=O)[C@@H](N)CSSC[C@@H](C(=O)O)NC1=O [Lynx1 short (3)] (H-CTRTYYTPTRMC-OH; disulfide 1-12) | > 100
CSCC[C@H](NC(=O)[C@H](CCCNC(=N)N)NC(=O)[C@@H](NC(=O)[C@@H]1CCCN1C(=O)[C@@H](NC(=O)[C@H](Cc1ccc(O)cc1)NC(=O)[C@H](Cc1ccc(O)cc1)NC(=O)[C@@H](NC(=O)[C@H](CCCNC(=N)N)NC(=O)[C@@H](NC(=O)[C@@H](N)CS)[C@@H](C)O)[C@@H](C)O)[C@@H](C)O)[C@@H](C)O)C(=O)N[C@@H](CS)C(=O)O [Lynx1 short linear (4)] (H-CTRTYYTPTRMC-OH) | 70.8
